Test results reported in the RNAGym collection of RNA variant scans (doi:10.7554/elife.90254).
The source gives no read counts; variants with many changes may rest on few reads.

B1: LINE1-mini (parent)
chain: GGCAGAGCUCAACACAGCGUGGCAAAGUGGCUGUGGCUAGACUGCC

Variants of: B1
Experiment: self-cleavage, relative activity (ratio to wild type); higher = more cleavage; in vitro, sequencing; the parent is a self-cleaving ribozyme

Variant	self-cleavage
G7A C10A C23G A25G U34A	0.01
G7A C10A G17U A24C U28C	0.02
G7A C10A G19A U20A C37U C45A	0
G7A C10A U20G	0.01
G7A C10G A11C A12C C13G C15U G33C C37U	0
G7A C10G A11U G22U C23U	0.01
G7A C10G A39C	0.02
G7A C10G G19U U32A	0.02
G7A C10G G33U G36U	0.03
G7A C10U A25U C45A C46G	0.22
G7A C10U G21A C23G C45U	0.03
G7A C13A C18U	0.09
G7A C13A C31A	0.04
G7A C13A G27U	0.14
G7A C13A U38A	0.04
G7A C13G A16U C18G	1.15
G7A C13G A41G C46A	0.12
G7A C13G C37A	0.16
G7A C13G C45U	0.02
G7A C13G G17C G22A	0.09
G7A C13G G19A A41G C46A	0.15
G7A C13U A16G U28C U32A	1.05
G7A C13U A24C G44A C45G	0.07
G7A C13U C18A G27U U28G G33U	0.06

Variant	self-cleavage
G7A C13U C31U G40C	0.27
G7A C13U G19A C42U	0.86
G7A C13U U20G A24U U34C	0.16
G7A C15A A39G C46U	0.01
G7A C15A G19C C37U U38G G44U	0.01
G7A C15A G22A A39G G40C C42U	0.17
G7A C15A G35C C45A	0.15
G7A C15G A39U	0.24
G7A C15G G44C	0.02
G7A C15U A16C G17A A25G G36C	0.04
G7A C18A A24C A39C C42U	0.05
G7A C18A C42G U43C C45A	0.06
G7A C18A G21A A25G G27A G36A	0.16
G7A C18A G22C G40A	0.04
G7A C18A G30A A41U	0.06
G7A C18A G35U C45A	0.05
G7A C18U U38C	0.19
G7A C23A C37A	0.02
G7A C23A U28C U32A C37G	0.01
G7A C23G A26U A41U	0.07
G7A C23U G27A U38G C46U	0.02
G7A C23U U32C	0.27
G7A C31A C42G	0.04
G7A C31A G33A G35U	0.25

Variant	self-cleavage
G7A C31A G35U	0.19
G7A C31A G44C	0.1
G7A C31U G33A A39C	0.13
G7A C31U U38C A39G C42G	0.06
G7A G17A A24G C31A	0.02
G7A G17A C23A U34G C46A	0.01
G7A G17A G27U G29C	0.1
G7A G17C A25G C31A C45A	0.05
G7A G17C G19U G21C	0.24
G7A G17C G27A C31U	0.05
G7A G17C G29U	0.83
G7A G17U C23G G33C C37A	0.03
G7A G17U C45U	0.08
G7A G17U G19U G36C	0.24
G7A G17U G30C G35U G36U U38A	0.03
G7A G17U G33A	0.06
G7A G19A C23G	0.04
G7A G19A C23U C37A	0.07
G7A G19A G35A A41G	0.15
G7A G19U G27A	0.16
G7A G19U G35A C46A	0.06
G7A G21A A24U	0.09
G7A G21A G40A	2.2
G7A G21A U34G C42U	0.17

Variant	self-cleavage
G7A G21C G22A C37A	0.07
G7A G21C G22C G27C G40C G44C	0.03
G7A G21C U28C G30C	0.04
G7A G21C U43G C45U	0.06
G7A G21U U28C G29C	0.01
G7A G22A G29A G33U G35A G40A	0.16
G7A G22U G27U C42A	0.12
G7A G27A G40C	0.07
G7A G27C U32G G36C	0.1
G7A G27C U34G	0.07
G7A G27U G40C	0.11
G7A G27U U34G C45A	0.21
G7A G29A A39G	0.07
G7A G29C A39U	0.07
G7A G29U U43A	0.77
G7A G30A U38G	0.02
G7A G30C G33U G36U	0.38
G7A G30U G36C	0.11
G7A G30U G40C	0.05
G7A G33A G36A G44C	0.23
G7A G33C G36C	0.03
G7A G33C U43A	0.29
G7A G33U G40U	0.27
G7A G40U A41U	0.22

Variant	self-cleavage
G7A U9A A16U G17C C18A U20C C37A A39G	0.04
G7A U9A G21A A39U	0.71
G7A U9A U34G	0.39
G7A U9C C10G C42A	0.01
G7A U9C C13U A14G G27C	0.02
G7A U9C G22A G33U A41G	0.04
G7A U9G A12U	0.29
G7A U9G A14G C37U G40U	0.11
G7A U9G U20G C23A A25G G27A G29C	0.02
G7A U9G U34G C46U	0.02
G7A U20A G22C U38G	0.01
G7A U20A G33U	0.06
G7A U20G A39U	0.14
G7A U20G G21C U38C	0.05
G7A U20G G30C C45A	0.09
G7A U28A G36U	0.05
G7A U28C G33C	0.15
G7A U28G C45A	0.22
G7A U32A U34A	0.19
G7A U32G A39U	0.08
G7A U38A C45A	0.07
G7A U43G C46G	0.14
G7C A11C A25G C37U	0.02
G7C A11C G17U C42G	0.05

Variant	self-cleavage
G7C A11C G29U U43A	0.03
G7C A11C U34G	0.01
G7C A11G G35C	0.02
G7C A11U A16C G27C	0.04
G7C A11U A25U U43A	0.01
G7C A11U C15A C18U	0.05
G7C A11U G21U G27A	0.01
G7C A11U G21U G27U	0.01
G7C A11U G22U C23A G30A	0.01
G7C A12C C46G	0.05
G7C A12C G19U U20C U38G C42A	0
G7C A12C U34A C42A	0
G7C A12U C13G	0.25
G7C A12U G30C	0.18
G7C A14C A16U G40U	0.11
G7C A14C C42A G44U	0.03
G7C A14C G19A C23A U32G	0.02
G7C A14C G29U	0.08
G7C A14U C15A C18U U20A G30U C31U A39C	0
G7C A14U C15G	0.03
G7C A14U C23A G36U	0.25
G7C A14U G29C	0.16
G7C A14U U28G G40A U43A	0.02
G7C A16C G17C	0.04

Variant	self-cleavage
G7C A16C G29U	0.04
G7C A16U A25G	0.05
G7C A16U G17U C31G G36C G40C C45A	0
G7C A16U G19A	0.28
G7C A24C G29U A41C	0.21
G7C A24G G29A G40A	0.08
G7C A25G G33U G40C	0.1
G7C A25U G30C U32G	0.71
G7C A26C G30U U32G	0.05
G7C A26G G27C U34G C45U	0.04
G7C A26G G30U G40A G44A	0.03
G7C C8A A14U C45G	0.22
G7C C8A C13G A14C	0.15
G7C C8A C13G G35C C45G C46G	0.13
G7C C8A G17U A25U C37U A39G	0.02
G7C C8A U32C G36U C46A	0.57
G7C C8G A24U C46G	0.13
G7C C8G C18G	0.1
G7C C8G C42A	0.02
G7C C8G U20C A41C	0.21
G7C C8U U28G C45G	0.22
G7C C10A A14C U20G U34C A39C A41C	0
G7C C10A A41C C46A	0.02
